In all, about 210,000 compounds went through this assay and about 730 (0.35%) were called active. The shares of active, inactive and inconclusive entries below differ from those in the screen. Calls follow the shape of the dose curve; as a rule, active = well fitted inhibition curve with a large enough effect; inconclusive = small, poorly fitted or top-dose-only effect; inactive = no such curve, though single readings can be large or run the other way. Potencies beside an inconclusive call are fits to weak or partial responses and may not hold up.
Assay: qHTS Assay for Identifying the Cell-Membrane Permeable IMPase Inhibitors: Potentiation with Lithium; also: nearly all actives have a fitted effect of over 50% in size;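 as to activity, negative = IMPase inhibition: plate controls were basal vehicle for no effect and high inhibitor control for full effect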
Conditions: CHO-M1 cells, IP1 TR-FRET (IP-One), carbachol + lithium; series mostly up to 59.4 µM; activity, negative = IMPase inhibition: at the top concentration
Summary of the method: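 IP1 accumulation measured by competitive TR-FRET in lysed CHO-M1 cells after 30 min compound exposure at 37C, with a small lithium addition to potentiate weak responses. Hill-equation AC50 from ratio and donor-channel data.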
Potency is read from the fitted curve at half-maximal effect.

Row | SMILES | Potency | activity, negative = IMPase inhibition
1 | Clc1ccc(CCNc2nc3ccccc3n3nnnc23)cc1 | inconclusive: 7.08 µM [inhibitor, partial curve] | –
2 | Cc1c(N=Cc2ccc(Br)s2)cccc1[N+](=O)[O-] | inconclusive: 10 µM [inhibitor, partial curve, poor fit] | –
3 | CCSc1nc(N)c2c3c(sc2n1)CCC3 | inconclusive: 1.12 µM [inhibitor, partial curve, poor fit] | –
4 | CCC(CC)C(=O)Nc1cccc(S(=O)(=O)c2cccc(NC(=O)C(CC)CC)c2)c1 | active: 11.2 µM | –
5 | CCSc1nnc([C@H](Cc2c[nH]c3ccccc23)NC(=O)OC(C)(C)C)o1 | – | inactive: 13% [at 38.3 µM]
6 | COC(=O)c1c(Cl)c2n3ccccc3c(C)c(-c3ccccc3)c-2c1C(=O)OC | active: 10 µM | –
7 | CC1CCCCC1NC(=O)COC(=O)c1ccc2ccccc2n1 (stereo not given) | inconclusive: 10 µM [inhibitor, partial curve] | –
8 | N[C@@H](Cn1cc(I)c(=O)n(Cc2ccc(C(=O)O)cc2)c1=O)C(=O)O | – | inactive: 2.37%
9 | CCOC(=O)c1cnc(-n2cc(C)cn2)nc1NCc1ccc2c(c1)OCO2 | inconclusive: 28.2 µM [inhibitor, single point] | –
10 | Cc1cc(NC(=O)CSc2nc(C3CC3)nc3sc(C)c(C)c23)no1 | inconclusive: 14.1 µM [inhibitor, single point] | –
11 | O=C(N/N=C/c1ccco1)c1cccc(N2Cc3ccccc3C2)c1 | – | inactive: 3.29%
12 | Cc1cc(C)nc(SCC(=O)Nc2ncc(C(F)(F)F)cc2Cl)n1 | inconclusive: 28.2 µM [inhibitor, single point] | –
13 | O=C(c1ccc(F)cc1)N1CCCCC(Sc2nnnn2-c2ccccc2)C1=O (stereo not given) | – | inactive: 23.6% [at 38.3 µM]
14 | CC(=O)N/C(=C/c1ccc2c(c1)OCO2)C(=O)NCC(=O)O | – | inactive: -3.01%
15 | CCc1nc(SCC(=O)NNC(=O)C2CCCCC2)c2ccccc2n1 | inconclusive: 28.2 µM [inhibitor, single point] | –
16 | O=C(CCCCCn1c(=S)[nH]c2ccc(N3CCOCC3)cc2c1=O)NCc1ccccc1Cl | inconclusive: 28.2 µM [inhibitor, single point] | –
17 | CC(C)CC(=O)NC(=S)Nc1sc2c(c1C(N)=O)CCC2 | inconclusive: 28.2 µM [inhibitor, single point] | –
18 | CCCOc1cccc(NC(=O)c2c(-c3ccccc3)noc2C)c1 | – | inactive: 44.6% [at 38.3 µM]
19 | COc1ccc(-c2csc(NC(=O)c3ccccc3NS(=O)(=O)c3ccc(C)cc3)n2)cc1 | – | inactive: 16.3%
20 | COc1ccc(C(=O)OCn2nnc3ccccc3c2=O)cc1[N+](=O)[O-] | inconclusive: 3.16 µM [inhibitor, single point] | –
21 | Clc1ccccc1-c1ccc2ncnc(NCCN3CCOCC3)c2c1 | inconclusive: 1 µM [inhibitor, full curve, poor fit] | –
22 | NS(=O)(=O)c1ccc(NC(=O)CCc2ccccc2)cc1 | – | inactive: -8.51% [at 38.3 µM]
23 | C=CCSc1nc(-c2ccccc2)c(C#N)c(=O)[nH]1 | inconclusive: 10 µM [inhibitor, single point] | –

Row | SMILES | Potency | activity, negative = IMPase inhibition
24 | CCOC(=O)c1c(C)[nH]c(C(=O)Cn2nnc(-c3ccccc3Cl)n2)c1C | inconclusive: 28.2 µM [inhibitor, single point] | –
25 | CC(C)OCCCNC(=O)c1cc(Sc2ccc(F)cc2)nc2ccccc12 | inconclusive: 28.2 µM [inhibitor, single point] | –
26 | Cc1cccc(Nc2nc3c(S(=O)(=O)c4ccccc4)nnn3c3ccccc23)c1 | inconclusive: 31.6 µM [inhibitor, single point] | –
27 | Cc1sc2ncnc(SCC(=O)c3cccs3)c2c1C | inconclusive: 22.4 µM [inhibitor, single point] | –
28 | COc1cccc(-c2cc(C(F)(F)F)c3c(N)c(C#N)sc3n2)c1 | inconclusive: 10 µM [inhibitor, partial curve] | –
29 | CCOc1cccc(-c2nn3c(-c4ccco4)nnc3s2)c1 | inconclusive: 31.6 µM [inhibitor, single point] | –
30 | C=CCN1C(=O)/C(=C2/Sc3ccccc3N2C)SC1=Nc1c(C)n[nH]c1C | inconclusive: 11.2 µM [inhibitor, single point] | –
31 | CCOC(=O)c1sc(=NC(=O)c2cccs2)n(C)c1C | inconclusive: 22.4 µM [inhibitor, single point] | –
32 | C=CCNC(=S)Nc1sc2c(c1C(=O)OCC)CCN(C(=O)OCC)C2 | inconclusive: 12.6 µM [inhibitor, single point] | –
33 | Cc1cc(NC(=O)CSc2nc3c(cc2C#N)CCCC3)no1 | inconclusive: 28.2 µM [inhibitor, single point] | –
34 | O=C(Cn1nnc(-c2ccccc2Cl)n1)NCc1ccc2c(c1)OCO2 | inconclusive: 14.1 µM [inhibitor, single point] | –
35 | O=C(CSc1nc(-c2ccccc2)cc(C(F)(F)F)n1)NCc1cccs1 | inconclusive: 14.1 µM [inhibitor, single point] | –
36 | O=S(=O)(c1ccc(-c2nc3ccccc3s2)cc1)N1CCCC1 | inconclusive: 28.2 µM [inhibitor, single point] | –
37 | COc1ccc(-c2cc3ccc(OCc4nn[nH]n4)cc3oc2=O)cc1OC | inconclusive: 10 µM [inhibitor, single point] | –
38 | COCCOC(=O)C1=C(C)NC2=C(C(=O)CC(C)(C)C2)C1c1cc2c(cc1Br)OCO2 (stereo not given) | inconclusive: 14.1 µM [inhibitor, single point] | –
39 | Cc1ccc(-n2nc3cc(C)c(NC(=O)c4cccnc4)cc3n2)cc1 | inconclusive: 11.2 µM [inhibitor, single point] | –
40 | O=C(N/N=C/c1cccs1)[C@H]1C[C@@H]1c1ccccc1 | – | inactive: -0.928%
41 | COc1ccccc1CNC(=O)/C=C/c1ccc(Br)o1 | – | inactive: 0.49%
42 | C/C(=N\Nc1ccc(F)cc1F)c1ccc(F)cc1 | – | inactive: 2.51% [at 38.3 µM]
43 | Cc1ccc(-c2nc3c(c(=O)[nH]c(=O)n3Cc3ccccc3)n2C)o1 | inconclusive: 3.55 µM [inhibitor, full curve, poor fit] | –
44 | COC(=O)c1ccc(C2/C(=C(/O)c3ccc(OC)cc3)C(=O)C(=O)N2CC2CCCO2)cc1 (stereo not given) | – | inactive: -23.1%
45 | O=C(COC(=O)c1ccccc1SCC(=O)NC1CCCCC1)NC1CCCCC1 | inconclusive: 22.4 µM [inhibitor, single point] | –
